# Over roughly 81,000 sequences, “one-hybrid fitness for binding NBS DNA” has its median near -0.1; the highest 2% begin near 0.36. Some of the results follow.
# B1: Caulobacter ParB omega fusion; a variant is named by its letters at X, in order, B8GW30 (parent)
# chain: MESVVVGEPGMSEGRRGLGRGLSALLGEVDAAPAQAPGEQLGGSREAPIEILQRNPDQPRRTFREEDLEDLSNSIREKGVLQPILVRPSPDTAGEYQIVAGERAWRAAQRAGLKTVPIMVRELDDLAVLEIGIIENVQRADLNVLEEALSYKVLMEKFERTQENIAQTIGKSXSHVANXMRLLXLPDEVQSYLVSGELTAXHARAIAAAADPVALAKQIIEGGLSVRETEALARKAPNLSAGKSKGGRPPRVKDTDTQALESDLSSVLGLDVSIDHRGSTGTLTITYATLEQLDDLCNRLTRGI
# Variants of: B1
# Assay: one-hybrid fitness for binding NBS DNA (the Noc-binding site; scaled: cognate 1, non-cognate 0); higher = stronger binding
# Conditions: with NBS DNA site
# Method in brief: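 Caulobacter ParB libraries with four specificity codons randomised were screened by bacterial one-hybrid selection in the E. coli USO strain, using a HIS3 reporter whose site lies 19 bp from the promoter. Selection ran for 48 hours at 37°C on M9 lacking histidine, with 0.1 mM IPTG and 5 mM 3-AT. Plasmids were Illumina-sequenced before and after selection, three replicate libraries were pooled, and variants with under 10 reads were dropped. Fitness is the log change in each variant's read ratio to wild type, rescaled against the cognate and non-cognate sites.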
row,Variant,one-hybrid fitness for binding NBS DNA
1,MVNM,≤ 0.2
2,HHSC,≤ 0.2
3,TAQR,≤ 0.2
4,SITW,≤ 0.2
5,IKAY,≤ 0.2
6,TTQK,≤ 0.2
7,AFAT,≤ 0.2
8,NAHT,≤ 0.2
9,RSKN,≤ 0.2
10,ILEV,≤ 0.2
11,SKFV,≤ 0.2
12,TILM,≤ 0.2
13,SNSQ,≤ 0.2
14,APFT,≤ 0.2
15,HGTL,≤ 0.2
16,SKCI,≤ 0.2
17,PKPN,≤ 0.2
18,SFQS,≤ 0.2
19,LEWR,≤ 0.2
20,PATG,≤ 0.2
21,HQRH,≤ 0.2
22,SDGL,≤ 0.2
23,YGRK,≤ 0.2
24,AEVR,≤ 0.2

row,Variant,one-hybrid fitness for binding NBS DNA
1,MLKQ,≤ 0.2
2,NQTN,≤ 0.2
3,TDAQ,≤ 0.2
4,EGYT,≤ 0.2
5,KQSC,≤ 0.2
6,DSTL,≤ 0.2
7,SIYR,≤ 0.2
8,HDLE,≤ 0.2
9,SGVY,≤ 0.2
10,GKVG,≤ 0.2
11,TSQT,≤ 0.2
12,TVYM,≤ 0.2
13,RILA,≤ 0.2
14,RETL,≤ 0.2
15,QCMM,≤ 0.2
16,APYW,≤ 0.2
17,HRHC,≤ 0.2
18,RPRC,≤ 0.2
19,ASFY,≤ 0.2
20,DETF,≤ 0.2
21,CYTS,≤ 0.2
22,KMNT,≤ 0.2
23,CHRK,≤ 0.2
24,IDQS,≤ 0.2

row,Variant,one-hybrid fitness for binding NBS DNA
1,IAAG,≤ 0.2
2,HRKD,≤ 0.2
3,NRTV,≤ 0.2
4,LHNI,≤ 0.2
5,HMKA,≤ 0.2
6,TCSP,≤ 0.2
7,DDTY,≤ 0.2
8,SKNP,≤ 0.2
9,CVKV,≤ 0.2
10,ELHT,≤ 0.2
11,IDLL,≤ 0.2
12,MTQS,≤ 0.2
13,QPYG,≤ 0.2
14,SVAW,≤ 0.2
15,RCGK,≤ 0.2
16,GKCG,≤ 0.2
17,NTNI,≤ 0.2
18,AGVL,≤ 0.2
19,WWNR,≤ 0.2
20,KDDG,≤ 0.2
21,PIVV,≤ 0.2
22,AGEF,≤ 0.2
23,GAEM,≤ 0.2
24,CVSL,≤ 0.2

row,Variant,one-hybrid fitness for binding NBS DNA
1,SATY,≤ 0.2
2,KDGR,≤ 0.2
3,TTFW,≤ 0.2
4,YSHM,≤ 0.2
5,ATCM,≤ 0.2
6,VSDG,≤ 0.2
7,SLPV,≤ 0.2
8,MFVY,≤ 0.2
9,MCRC,≤ 0.2
10,ELRF,≤ 0.2
11,RIIA,≤ 0.2
12,MSPC,≤ 0.2
13,EIHS,≤ 0.2
14,QYTR,0.572
15,RCAQ,≤ 0.2
16,RIVG,≤ 0.2
17,FHRN,≤ 0.2
18,TVNM,≤ 0.2
19,RIKL,≤ 0.2
20,SFWY,≤ 0.2
21,IYAM,≤ 0.2
22,WWSG,≤ 0.2
23,RRFV,0.213
24,ILIS,≤ 0.2

row,Variant,one-hybrid fitness for binding NBS DNA
1,LFVM,≤ 0.2
2,NPNL,≤ 0.2
3,RATT,0.415
4,LSFT,≤ 0.2
5,LPPC,≤ 0.2
6,IQKS,≤ 0.2
7,CNAT,≤ 0.2
8,IDPD,≤ 0.2
9,LQET,≤ 0.2
10,DKKC,≤ 0.2
11,NAPI,≤ 0.2
12,PTHC,≤ 0.2
13,NLTC,≤ 0.2
14,RGTW,≤ 0.2
15,PLDC,≤ 0.2
16,NATS,≤ 0.2
17,HQCT,≤ 0.2
18,WKTR,≤ 0.2
19,LNCR,≤ 0.2
20,SPRQ,≤ 0.2
21,LRPW,≤ 0.2
22,GVRF,≤ 0.2
23,KCCC,≤ 0.2
24,KSPM,≤ 0.2

row,Variant,one-hybrid fitness for binding NBS DNA
1,LYVC,≤ 0.2
2,LWAL,≤ 0.2
3,RVCA,≤ 0.2
4,HADM,≤ 0.2
5,NVGW,≤ 0.2
6,RYLF,≤ 0.2
7,LSTK,≤ 0.2
8,NCWS,≤ 0.2
9,FAPC,≤ 0.2
10,PSAE,≤ 0.2
11,LDVR,0.201
12,FEQS,≤ 0.2
13,QTWR,0.529
14,QYYT,0.352
15,KQPL,≤ 0.2
16,CSTA,≤ 0.2
17,YLDA,≤ 0.2
18,TVPS,≤ 0.2
19,AGGS,≤ 0.2
20,SQEM,≤ 0.2
21,CGKW,≤ 0.2
22,GSAS,≤ 0.2
23,PDPR,≤ 0.2
24,ELYG,≤ 0.2

row,Variant,one-hybrid fitness for binding NBS DNA
1,PDVF,≤ 0.2
2,KRFM,≤ 0.2
3,AYER,≤ 0.2
4,APTY,≤ 0.2
5,KRDC,≤ 0.2
6,LDRR,≤ 0.2
7,QNRH,≤ 0.2
8,PFYS,≤ 0.2
9,SLSV,≤ 0.2
10,NSVN,≤ 0.2
11,FCKR,0.392
12,YHVW,≤ 0.2
13,YYQV,≤ 0.2
14,FPRC,≤ 0.2
15,QGQL,≤ 0.2
16,YCNG,≤ 0.2
17,HARC,≤ 0.2
18,RKES,0.434
19,RFEC,≤ 0.2
20,AGKI,≤ 0.2
21,PGDW,≤ 0.2
22,DYHR,≤ 0.2
23,PTYH,≤ 0.2
24,QARN,0.349

row,Variant,one-hybrid fitness for binding NBS DNA
1,HTGY,≤ 0.2
2,MVFS,≤ 0.2
3,YAPP,≤ 0.2
4,VFTP,≤ 0.2
5,RPMY,≤ 0.2
6,SWHI,≤ 0.2
7,VGHT,≤ 0.2
8,MGVS,≤ 0.2
9,GRIR,≤ 0.2
10,PWSI,≤ 0.2
11,ILIG,≤ 0.2
12,GLNS,≤ 0.2
13,ATVG,≤ 0.2
14,PHDV,≤ 0.2
15,QAVN,≤ 0.2
16,PVDT,≤ 0.2
17,QKHN,≤ 0.2
18,YYHN,≤ 0.2
19,QCNF,≤ 0.2
20,CRKY,≤ 0.2
21,DALA,≤ 0.2
22,MSPG,≤ 0.2
23,ACYR,≤ 0.2
24,AGAS,≤ 0.2

row,Variant,one-hybrid fitness for binding NBS DNA
1,RTPY,≤ 0.2
2,GSKD,≤ 0.2
3,VPIK,≤ 0.2
4,NCVG,≤ 0.2
5,HRLM,≤ 0.2
6,RAPP,≤ 0.2
7,QMND,≤ 0.2
8,CAPV,≤ 0.2
9,FGAF,≤ 0.2
10,MFMG,≤ 0.2
11,LGLM,≤ 0.2
12,RLFH,≤ 0.2
13,MKTK,≤ 0.2
14,RHFK,≤ 0.2
15,LWHT,≤ 0.2
16,QWYT,≤ 0.2
17,RASH,≤ 0.2
18,QKHC,≤ 0.2
19,APVY,≤ 0.2
20,LKCV,≤ 0.2
21,HRWH,≤ 0.2
22,FEAS,≤ 0.2
23,VYVL,≤ 0.2
24,TFTF,≤ 0.2

row,Variant,one-hybrid fitness for binding NBS DNA
1,QVPD,≤ 0.2
2,FNYI,≤ 0.2
3,RHGA,≤ 0.2
4,KYAK,≤ 0.2
5,GSSF,≤ 0.2
6,RDHQ,≤ 0.2
7,LAFS,≤ 0.2
8,RCAD,≤ 0.2
9,YCTY,≤ 0.2
10,PIGT,≤ 0.2
11,PSPL,≤ 0.2
12,ISLV,≤ 0.2
13,LNHC,≤ 0.2
14,LFTW,≤ 0.2
15,SKSH,≤ 0.2
16,YTYD,≤ 0.2
17,AMSY,≤ 0.2
18,NDRY,≤ 0.2
19,GSMI,≤ 0.2
20,ILYP,≤ 0.2
21,GNWG,≤ 0.2
22,NANF,≤ 0.2
23,EYMT,≤ 0.2
24,RRQT,0.752

row,Variant,one-hybrid fitness for binding NBS DNA
1,MPYS,≤ 0.2
2,HSIV,≤ 0.2
3,AHQG,≤ 0.2
4,CIKG,≤ 0.2
5,RTYC,≤ 0.2
6,NHHL,≤ 0.2
7,ALYL,≤ 0.2
8,PMPP,≤ 0.2
9,VGWY,≤ 0.2
10,QHSI,≤ 0.2
11,HHGS,≤ 0.2
12,PDNI,≤ 0.2
13,LKKC,≤ 0.2
14,YHNS,≤ 0.2
15,LVMN,≤ 0.2
16,VNNY,≤ 0.2
17,FDLD,≤ 0.2
18,WGDM,≤ 0.2
19,LCSR,≤ 0.2
20,GRRD,≤ 0.2
21,ALLP,≤ 0.2
22,TQTA,≤ 0.2
23,MQWT,≤ 0.2
24,RMIL,≤ 0.2

row,Variant,one-hybrid fitness for binding NBS DNA
1,NPPP,≤ 0.2
2,MLYG,≤ 0.2
3,NNNK,≤ 0.2
4,VDEN,≤ 0.2
5,ATLL,≤ 0.2
6,THYP,≤ 0.2
7,WRYR,≤ 0.2
8,GNTR,≤ 0.2
9,GRAH,≤ 0.2
10,PRSG,≤ 0.2
11,RPAR,≤ 0.2
12,RFLY,≤ 0.2
13,WWSD,≤ 0.2
14,GAPC,≤ 0.2
15,DGFC,≤ 0.2
16,QHYR,0.471
17,QNLN,≤ 0.2
18,SPKI,≤ 0.2
19,HTRF,≤ 0.2
20,APHR,≤ 0.2
21,DNIS,≤ 0.2
22,SNKA,≤ 0.2
23,CTWP,≤ 0.2
24,RCTD,≤ 0.2

row,Variant,one-hybrid fitness for binding NBS DNA
1,QPNT,≤ 0.2
2,RRLA,0.584
3,SQIR,≤ 0.2
4,KRWR,0.578
5,TKPG,≤ 0.2
6,TQLS,≤ 0.2
7,AFPL,≤ 0.2
8,CRNG,≤ 0.2
9,YLQC,≤ 0.2
10,VEPS,≤ 0.2
11,NYHR,≤ 0.2
12,QHQA,0.315
13,QLFG,≤ 0.2
14,TTCH,≤ 0.2
15,LDSR,≤ 0.2
16,AWLG,≤ 0.2
17,SRLE,≤ 0.2
18,PCKS,≤ 0.2

# Reference: a collection of fitness landscapes (doi:10.1016/j.celrep.2020.107928)
